{"source": "ChEMBL document CHEMBL4888484", "about": "“Replenishing the malaria drug discovery pipeline: Screening and hit evaluation of the MMV Hit Generation Library 1 (HGL1) against asexual blood stage Plasmodium falciparum ,using a nano luciferase reporter read-out” (2022)", "note": "Hit rate of the full screen: of about 150,000 compounds, about 540 (0.36%) showed an effect of 50% or more. This is one part of the list.", "data": [{"system": "Plasmodium falciparum", "assay": "Primary screen in NF54 nanoGlo assay, in single point, at 2uM, 72h; a lower Z score goes with more inhibition", "assay_type": "functional, Erythrocyte", "settings": "timepoint 72 hour", "units": {"% Inhibition": "%"}, "values": [{"smiles": "CO/C(=N/C(=O)c1ccc(Cl)c(Cl)c1)NCCCc1ccccc1", "% Inhibition": 5, "Z score": -0.74}, {"smiles": "C#CCCN1CCC(NC(=O)c2cc(C3CC3)nc3ccccc23)CC1", "% Inhibition": -8, "Z score": 0.76}, {"smiles": "O=C(c1cnc[nH]1)N1CCN(c2c(F)cccc2F)CC1", "% Inhibition": 0, "Z score": 0.05}, {"smiles": "COCC(=O)N1CCCN(C(=O)c2cccc(-c3ccccc3O)c2)CC1", "% Inhibition": -6, "Z score": 1.12}, {"smiles": "CCc1nc(C(C)C)ccc1C(=O)N(C)Cc1cnccn1", "% Inhibition": -12, "Z score": 1.4}, {"smiles": "CCn1ncc(Cl)c1C(=O)N1CC[C@@H]2OCc3cnnn3[C@@H]2C1", "% Inhibition": -11, "Z score": 2.15}, {"smiles": "Cc1ccc(C(=O)N2CCN(C(=O)c3cc4ccsc4n3Cc3cccc(F)c3)C[C@@H]2C)cc1", "% Inhibition": -8, "Z score": 1.16}, {"smiles": "CC[C@@H]1NC(=O)N(Cc2ccc(-c3ccc(OC)cc3)s2)C1=O", "% Inhibition": 3, "Z score": -0.49}, {"smiles": "CCn1cc(CN(CC(C)C)C(=O)c2ccccc2C#N)cn1", "% Inhibition": -14, "Z score": 1.8}, {"smiles": "O=C([C@@H]1Cc2ccccc2N1)N1CCC(CO)CC1", "% Inhibition": 2, "Z score": -0.29}, {"smiles": "Cc1nc(N2CCN(C[C@H](O)C3CC3)CC2)c(Cl)cc1C#N", "% Inhibition": -2, "Z score": 0.37}, {"smiles": "CC(C)C[C@H](CN)CC(=O)OCCc1ccccc1", "% Inhibition": -8, "Z score": 0.64}, {"smiles": "N#CC1(C(=O)N[C@H]2CN(CC(N)=O)C[C@@H]2c2ccccc2)CCOCC1", "% Inhibition": -5, "Z score": 0.7}, {"smiles": "C#CCNS(=O)(=O)c1c(N)noc1C", "% Inhibition": -2, "Z score": 0.26}, {"smiles": "O=C(Nc1ccc(OC(F)(F)F)cc1)N1CC[C@H](c2nc3ccccc3o2)C1", "% Inhibition": -3, "Z score": 0.49}, {"smiles": "Cc1ocnc1C(=O)N(CC1CCCCC1)c1ccccn1", "% Inhibition": -1, "Z score": 0.19}, {"smiles": "Cc1cccn2c(O)c(C(=O)NCCO)c(=O)nc12", "% Inhibition": 1, "Z score": -0.1}, {"smiles": "COc1ccccc1OCC[C@H]1CCN(C(=O)CCC2CCCC2)C1", "% Inhibition": -7, "Z score": 1.37}, {"smiles": "CC(C)[C@H](NC(=O)c1cnn(CCF)c1)C1(CO)CCCC1", "% Inhibition": 8, "Z score": -1.57}, {"smiles": "Cc1noc(C)c1S(=O)(=O)N1CC[C@H](c2noc(-c3ccccn3)n2)C1", "% Inhibition": -14, "Z score": 1.77}, {"smiles": "COc1ccc(CCC(=O)N2CCC[C@H](c3nnn[nH]3)C2)cc1", "% Inhibition": -6, "Z score": 0.91}, {"smiles": "Cc1ccc([C@@H]2CC(c3cccc(C)c3)=NN2C(=O)CN2CCOCC2)cc1", "% Inhibition": -7, "Z score": 0.88}, {"smiles": "CCC(C)NC(=O)C1CCC(c2cccc(C(F)(F)F)c2)N(C(C)=O)C1", "note": "(stereo not drawn)", "% Inhibition": -11, "Z score": 1.58}, {"smiles": "COCc1ccc(NC(=O)N[C@H]2CCO[C@@H]2c2cnn(C(C)C)c2)cc1C#N", "% Inhibition": -22, "Z score": 3.31}]}]}
